In all, about 410,000 compounds went through this assay and about 5,000 (1.2%) were called active. This list was built around the results that the source calls inconclusive (neither active nor inactive); the mix of calls is not that of the screen. The call rests on the fitted dose curve; in most records, active means well fitted inhibition curve with a large enough effect; inconclusive means small, poorly fitted or top-dose-only effect; inactive means no such curve, though single readings can be large or run the other way. Where the call is inconclusive, the potency comes from a doubtful curve fit.
Assay: qHTS for Inhibitors of TGF-b; further: nearly all actives have a fitted effect of over 65% in size
Settings: HepG2 CAGA-GFP TGF-b/SMAD3 reporter, GFP fluorescence, 18 h, TGF-beta stimulated, 500 pg/mL final; series mostly up to 46.1 µM; activity, negative = inhibition: at the top concentration
Procedure, shortened: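 Inhibition of TGF-beta-driven CAGA-GFP reporter expression in HEPG2 cells is measured by cellular GFP fluorescence after 18 h stimulation with 500 pg/mL recombinant TGF-beta in 1% FBS medium at 37 degrees C.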
On the % scale 0 is the no-effect control and ±100 the full control effect; potency means the concentration at half of the fitted maximal effect; tags describe the fitted curve by direction and shape.

**Q.** With `CC1(C)CC(C(CCN(Cc2ccccc2)C(=O)c2ccco2)c2ccc(F)cc2)CCO1` (stereo not drawn) as the compound, how does the Potency read?
**A.** Its Potency is inconclusive: 20 µM [inhibitor, single point].

**Q.** Which Potency does the source give for `NC1=NC[C@H](Cc2ccccc2)N1CCc1cc(C(F)(F)F)cc(C(F)(F)F)c1` here?
**A.** The Potency was inconclusive: 11.2 µM [inhibitor, partial curve, poor fit].

**Q.** Which Potency does the source give for `COc1ccc(OC)c(CCNC(=O)c2c(C)nn(-c3ccc(F)cc3)c2-n2cccc2)c1` here?
**A.** The Potency was inconclusive: 35.5 µM [inhibitor, single point].

**Q.** For `COc1ccc(Cn2nnc(C(=O)Nc3cc(OC)ccc3OC)c2N)cc1`, which Potency is on record?
**A.** The Potency was inconclusive: 11.2 µM [inhibitor, partial curve, poor fit].

**Q.** With `Cc1ccc(NC(=O)Cn2c(=O)n(Cc3ccco3)c(=O)c3ccc(C(=O)NC4CCCC4)cc32)c(C)c1` as the compound, how does the “activity, negative = inhibition” value read?
**A.** The value was inactive: -4.7%.

**Q.** Which “activity, negative = inhibition” value does the source give for `COc1cc2cnc(-c3ccccc3)c(-c3ccc(C#N)cc3)c2cc1OC` here?
**A.** The value was inactive: 12.5%.

**Q.** With `C#CC(=O)N(c1ccc(OC)c(OC)c1)C(C(=O)NC1CCCC1)c1cccs1` (stereo not drawn) as the compound, how does the Potency read?
**A.** Its Potency is inconclusive: 22.4 µM [inhibitor, single point].

**Q.** Which Potency does the source give for `Cc1ccc(Cn2nnc3c(=O)[nH]c(C4CCN(S(=O)(=O)c5ccc(S(=O)(=O)NC6CC6)cc5)CC4)nc32)cc1` here?
**A.** Its Potency is inconclusive: 35.5 µM [inhibitor, single point].

**Q.** With `CC(C)[C@H](NC(=O)NCc1ccc(F)cc1)C(=O)O` as the compound, how does the “activity, negative = inhibition” value read?
**A.** Its value is inactive: 2.52%.

**Q.** For `COc1ccc(OC)c(NC(=O)CN(C)S(=O)(=O)c2ccc3[nH]c4c(c3c2)CCCC4)c1`, which Potency is on record?
**A.** The Potency was inconclusive: 14.1 µM [inhibitor, single point].

**Q.** For `O=C(CSc1nnc(-c2cc3ccccc3cc2O)n1Cc1ccco1)c1ccc(F)cc1`, which Potency is on record?
**A.** Its Potency is inconclusive: 35.5 µM [inhibitor, single point].

**Q.** With `CN(C)CCCNC(=O)CC1C[C@H](C(=O)N2CCCCC2)[C@@]2(CCc3ccccc3)c3[nH]c4ccccc4c3CCN2C1=O` (stereo partly drawn) as the compound, how does the “activity, negative = inhibition” value read?
**A.** The value was inactive: 35.9%.

**Q.** For `Cc1c(C=O)c2ccccc2n1CCOc1ccccc1F`, which Potency is on record?
**A.** Its Potency is inconclusive: 7.94 µM [inhibitor, partial curve].

**Q.** For `Cc1ccc(S(=O)(=O)N2C(=O)c3cccc4cccc2c34)cc1`, which Potency is on record?
**A.** The Potency was inconclusive: 35.5 µM [inhibitor, single point].

**Q.** Which “activity, negative = inhibition” value does the source give for `COc1cc(/C=C/C(=O)NC(C)CCc2ccccc2)cc(OC)c1OC` (stereo not drawn) here?
**A.** Its value is inactive: 2.85%.

**Q.** For `Cc1c(C(=O)NCc2cccs2)sc(=O)n1Cc1ccc(S(=O)(=O)N(C)C)cc1`, which “activity, negative = inhibition” value is on record?
**A.** Its value is inactive: -14.6%.

**Q.** With `COc1ccc(-c2cc(C#N)nc(N3CCN(C)CC3)n2)cc1` as the compound, how does the Potency read?
**A.** The Potency was inconclusive: 5.62 µM [inhibitor, single point].

**Q.** With `CCc1c(C)[nH]c2ccccc2c1=O` as the compound, how does the “activity, negative = inhibition” value read?
**A.** The value was inactive: -8.69%.

**Q.** With `C=CCN(CC=C)Cc1cc(=O)oc2cc(OC)c(Cl)cc12` as the compound, how does the Potency read?
**A.** The Potency was inconclusive: 12.6 µM [inhibitor, single point].

**Q.** Which Potency does the source give for `CC(C)NC(=O)c1ccccc1NS(=O)(=O)c1ccc(Br)s1` here?
**A.** Its Potency is inconclusive: 25.1 µM [inhibitor, single point].

**Q.** For `COc1ccc(NC(=O)c2cccc(Oc3ccccc3)c2)cn1`, which Potency is on record?
**A.** Its Potency is inconclusive: 14.1 µM [inhibitor, single point].

**Q.** With `COC(=O)c1ccccc1CCC(C)=O` as the compound, how does the Potency read?
**A.** The Potency was inconclusive: 5.62 µM [inhibitor, single point].

**Q.** Which Potency does the source give for `COC(=O)c1ccccc1NC(=S)N(Cc1ccc2c(c1)OCO2)Cc1cc2cc(C)ccc2[nH]c1=O` here?
**A.** Its Potency is inconclusive: 12.6 µM [inhibitor, partial curve, poor fit].

**Q.** With `CC(C)CN(Cc1c(O)ccc2ccccc12)CC(C)C` as the compound, how does the Potency read?
**A.** Its Potency is inconclusive: 14.1 µM [inhibitor, single point].

**Q.** With `CC(=O)N(Cc1ccc(F)cc1)C1=C(NCCc2ccccc2)C(=O)c2ccccc2C1=O` as the compound, how does the Potency read?
**A.** The Potency was inconclusive: 6.31 µM [inhibitor, full curve, poor fit].

**Q.** For `COc1ccc(C)cc1NC(=O)CSc1nc(=O)n(Cc2ccncc2)c2c1CCC2`, which Potency is on record?
**A.** The Potency was inconclusive: 35.5 µM [inhibitor, single point].

**Q.** For `C=Cc1ccc(CN2C(=O)N(c3ccc(CC)cc3)S(=O)(=O)c3ccccc32)cc1`, which Potency is on record?
**A.** Its Potency is inconclusive: 0.794 µM [inhibitor, partial curve, poor fit].

**Q.** For `Cc1[nH]c(SCC(=O)c2c(N)n(C)c(=O)n(C)c2=O)nc1Cc1ccccc1`, which “activity, negative = inhibition” value is on record?
**A.** The value was inactive: 0.94%.

**Q.** For `O=C1c2cc(F)ccc2-n2c1nc1ccccc1c2=O`, which Potency is on record?
**A.** The Potency was inconclusive: 1 µM [inhibitor, full curve, poor fit].

**Q.** With `COc1ccc(C)cc1NC(=O)NCc1ccc2c(c1)CCN2C(=O)c1ccccc1` as the compound, how does the “activity, negative = inhibition” value read?
**A.** The value was inactive: 0%.

**Q.** With `CCc1ccccc1NC(=O)CN1CCN(C(=O)CNC(=O)c2ccccc2F)CC1` as the compound, how does the Potency read?
**A.** Its Potency is inconclusive: 35.5 µM [inhibitor, partial curve, poor fit].

**Q.** For `O=C(COC(=O)C1(c2ccc(Cl)cc2)CCCC1)Nc1ncc(C(F)(F)F)cc1Cl`, which Potency is on record?
**A.** Its Potency is inconclusive: 35.5 µM [inhibitor, single point].

**Q.** For `COc1ccc(C(=O)NCCc2sc(-c3ccc(Cl)cc3)nc2C)c(OC)c1`, which Potency is on record?
**A.** Its Potency is inconclusive: 11.2 µM [inhibitor, partial curve, poor fit].
